{
  "source": "the supplement of paper PMC8728848",
  "assay_in_all_cases": "glycan array binding signal (z-score within array); higher = stronger binding",
  "conditions_in_all_cases": "glycan notation: IUPAC condensed, linker removed",
  "key": {"[1]": {"target": "Neu5Ac(a2-3)Gal6S(b1-4)GlcNAc", "outline": "(§1)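 Columns mapping to the same glycan were averaged after glycan names were converted to IUPAC-condensed notation. The data come from 3228 arrays in the Consortium for Functional Glycomics database, limited to those with an available protein sequence. Binding is reported as a within-array Z-score averaged across arrays of one protein sequence and across linkers.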"}, "[2]": {"target": "Neu5Ac(a2-3)Gal6S(b1-4)[Fuc(a1-3)]GlcNAc", "outline": "as §1"}, "Neu5Ac(a2-3)GalNAc": {"target": "Neu5Ac(a2-3)GalNAc", "outline": "as §1"}, "[3]": {"target": "Neu5Ac(a2-3)GalNAc(b1-4)GlcNAc", "outline": "as §1"}, "[4]": {"target": "Neu5Ac(a2-3)[GalNAc(b1-4)]Gal(b1-4)Glc", "outline": "as §1"}, "[5]": {"target": "Neu5Ac(a2-3)[GalNAc(b1-4)]Gal(b1-4)GlcNAc", "outline": "as §1"}, "[6]": {"target": "Neu5Ac(a2-3)[Neu5Ac(a2-6)]GalNAc", "outline": "as §1"}, "Neu5Ac(a2-6)Gal": {"target": "Neu5Ac(a2-6)Gal", "outline": "as §1"}, "Neu5Ac(a2-6)Gal(b1-4)Glc": {"target": "Neu5Ac(a2-6)Gal(b1-4)Glc", "outline": "as §1"}, "[7]": {"target": "Neu5Ac(a2-6)Gal(b1-4)GlcNAc", "outline": "as §1"}, "[8]": {"target": "Neu5Ac(a2-6)Gal(b1-4)GlcNAc(b1-3)Gal(b1-4)GlcNAc", "outline": "as §1"}, "[9]": {"target": "Neu5Ac(a2-6)Gal(b1-4)GlcNAc(b1-3)Gal(b1-4)[Fuc(a1-3)]GlcNAc(b1-3)Gal(b1-4)[Fuc(a1-3)]GlcNAc", "outline": "as §1"}, "[10]": {"target": "Neu5Ac(a2-6)Gal(b1-4)GlcNAc6S", "outline": "as §1"}, "Neu5Ac(a2-6)GalNAc": {"target": "Neu5Ac(a2-6)GalNAc", "outline": "as §1"}, "[11]": {"target": "Neu5Ac(a2-6)GalNAc(b1-4)GlcNAc", "outline": "as §1"}, "Neu5Ac(a2-8)Neu5Ac": {"target": "Neu5Ac(a2-8)Neu5Ac", "outline": "as §1"}, "[12]": {"target": "Neu5Ac(a2-8)Neu5Ac(a2-3)Gal(b1-4)Glc", "outline": "as §1"}, "[13]": {"target": "Neu5Ac(a2-8)Neu5Ac(a2-3)[GalNAc(b1-4)]Gal(b1-4)Glc", "outline": "as §1"}, "[14]": {"target": "Neu5Ac(a2-8)Neu5Ac(a2-8)Neu5Ac", "outline": "as §1"}, "[15]": {"target": "Neu5Ac(a2-8)Neu5Ac(a2-8)Neu5Ac(a2-3)Gal(b1-4)Glc", "outline": "as §1"}, "[16]": {"target": "Neu5Ac(a2-8)Neu5Ac(a2-8)Neu5Ac(a2-3)[GalNAc(b1-4)]Gal(b1-4)Glc", "outline": "as §1"}, "[17]": {"target": "Neu5Ac(a2-8)Neu5Ac(a2-8)Neu5Ac(a2-8)Neu5Ac(a2-3)[GalNAc(b1-4)]Gal(b1-4)Glc", "outline": "as §1"}, "Neu5Ac(b1-6)GalNAc": {"target": "Neu5Ac(b1-6)GalNAc", "outline": "as §1"}, "[18]": {"target": "Neu5Ac(b2-6)Gal(b1-4)GlcNAc", "outline": "as §1"}, "[19]": {"target": "Neu5Ac9Ac(a2-6)Gal(b1-4)GlcNAc", "outline": "as §1"}, "[20]": {"target": "Neu5Gc(a2-3)Gal(b1-3)GlcNAc", "outline": "as §1"}, "[21]": {"target": "Neu5Gc(a2-3)Gal(b1-3)[Fuc(a1-4)]GlcNAc", "outline": "as §1"}, "Neu5Gc(a2-3)Gal(b1-4)Glc": {"target": "Neu5Gc(a2-3)Gal(b1-4)Glc", "outline": "as §1"}, "[22]": {"target": "Neu5Gc(a2-3)Gal(b1-4)GlcNAc", "outline": "as §1"}, "[23]": {"target": "Neu5Gc(a2-3)Gal(b1-4)[Fuc(a1-3)]GlcNAc", "outline": "as §1"}, "[24]": {"target": "Neu5Gc(a2-6)Gal(b1-4)GlcNAc", "outline": "as §1"}, "Neu5Gc(a2-6)GalNAc": {"target": "Neu5Gc(a2-6)GalNAc", "outline": "as §1"}},
  "note": "The list shows a part of the results.",
  "data": [
    {"binder": "Mindin (Homo sapiens), Q9BUD6 (protein) MENPSPAAALGKALCALLLATLGAAGQPLGGESICSARALAKYSITFTGKWSQTAFPKQYPLFRPPAQWSSLLGAAHSSDYSMWRKNQYVSNGLRDFAERGEAWALMKEIEAAGEALQSVHEVFSAPAVPSGTGQTSAELEVQRRHSLVSFVVRIVPSPDWFVGVDSLDLCDGDRWREQAALDLYPYDAGTDSGFTFSSPNFATIPQDTVTEITSSSPSHPANSFYYPRLKALPPIARVTLVRLRQSPRAFIPPAPVLPSRDNEIVDSASVPETPLDCEVSLWSSWGLCGGHCGRLGTKSRTRYVRVQPANNGSPCPELEEEAECVPDNCV", "values": [
      {"measurement": "glycan array binding signal (z-score)", "setting": "[1]", "value": -0.205},
      {"measurement": "glycan array binding signal (z-score)", "setting": "[2]", "value": -0.264},
      {"measurement": "glycan array binding signal (z-score)", "setting": "Neu5Ac(a2-3)GalNAc", "value": -0.343},
      {"measurement": "glycan array binding signal (z-score)", "setting": "[3]", "value": -0.332},
      {"measurement": "glycan array binding signal (z-score)", "setting": "[4]", "value": 0.066},
      {"measurement": "glycan array binding signal (z-score)", "setting": "[5]", "value": 0.583},
      {"measurement": "glycan array binding signal (z-score)", "setting": "[6]", "value": -0.227},
      {"measurement": "glycan array binding signal (z-score)", "setting": "Neu5Ac(a2-6)Gal", "value": -0.216},
      {"measurement": "glycan array binding signal (z-score)", "setting": "Neu5Ac(a2-6)Gal(b1-4)Glc", "value": -0.31},
      {"measurement": "glycan array binding signal (z-score)", "setting": "[7]", "value": -0.313},
      {"measurement": "glycan array binding signal (z-score)", "setting": "[8]", "value": -0.32},
      {"measurement": "glycan array binding signal (z-score)", "setting": "[9]", "value": -0.299},
      {"measurement": "glycan array binding signal (z-score)", "setting": "[10]", "value": -0.215},
      {"measurement": "glycan array binding signal (z-score)", "setting": "Neu5Ac(a2-6)GalNAc", "value": -0.334},
      {"measurement": "glycan array binding signal (z-score)", "setting": "[11]", "value": -0.408},
      {"measurement": "glycan array binding signal (z-score)", "setting": "Neu5Ac(a2-8)Neu5Ac", "value": -0.301},
      {"measurement": "glycan array binding signal (z-score)", "setting": "[12]", "value": -0.086},
      {"measurement": "glycan array binding signal (z-score)", "setting": "[13]", "value": 0.237},
      {"measurement": "glycan array binding signal (z-score)", "setting": "[14]", "value": -0.189},
      {"measurement": "glycan array binding signal (z-score)", "setting": "[15]", "value": -0.295},
      {"measurement": "glycan array binding signal (z-score)", "setting": "[16]", "value": 0.218},
      {"measurement": "glycan array binding signal (z-score)", "setting": "[17]", "value": 0.139},
      {"measurement": "glycan array binding signal (z-score)", "setting": "Neu5Ac(b1-6)GalNAc", "value": -0.335},
      {"measurement": "glycan array binding signal (z-score)", "setting": "[18]", "value": -0.127},
      {"measurement": "glycan array binding signal (z-score)", "setting": "[19]", "value": -0.308},
      {"measurement": "glycan array binding signal (z-score)", "setting": "[20]", "value": -0.313},
      {"measurement": "glycan array binding signal (z-score)", "setting": "[21]", "value": -0.385},
      {"measurement": "glycan array binding signal (z-score)", "setting": "Neu5Gc(a2-3)Gal(b1-4)Glc", "value": -0.364},
      {"measurement": "glycan array binding signal (z-score)", "setting": "[22]", "value": -0.329},
      {"measurement": "glycan array binding signal (z-score)", "setting": "[23]", "value": 0.067},
      {"measurement": "glycan array binding signal (z-score)", "setting": "[24]", "value": -0.363},
      {"measurement": "glycan array binding signal (z-score)", "setting": "Neu5Gc(a2-6)GalNAc", "value": -0.312}
    ]}
  ]
}
